# From PMC4336329 (PLoS ONE, 2015)
# The whole screen tested about 310,000 compounds, of which about 14,000 (4.5%) showed an effect of 50% or more. Effects have a minus sign here. The list shows a part of the results.
# Molecular target: human ether-à-go-go-related gene (hERG) potassium channel (human, UniProt Q12809)
# Assay: primary screen, population patch clamp on CHO cells stably expressing hERG
# 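Further: peak tail current of the secondary pulse compared with the same well before compound.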
# human ether-à-go-go-related gene (hERG) potassium channel, sequence (Q12809 whole entry, looked up): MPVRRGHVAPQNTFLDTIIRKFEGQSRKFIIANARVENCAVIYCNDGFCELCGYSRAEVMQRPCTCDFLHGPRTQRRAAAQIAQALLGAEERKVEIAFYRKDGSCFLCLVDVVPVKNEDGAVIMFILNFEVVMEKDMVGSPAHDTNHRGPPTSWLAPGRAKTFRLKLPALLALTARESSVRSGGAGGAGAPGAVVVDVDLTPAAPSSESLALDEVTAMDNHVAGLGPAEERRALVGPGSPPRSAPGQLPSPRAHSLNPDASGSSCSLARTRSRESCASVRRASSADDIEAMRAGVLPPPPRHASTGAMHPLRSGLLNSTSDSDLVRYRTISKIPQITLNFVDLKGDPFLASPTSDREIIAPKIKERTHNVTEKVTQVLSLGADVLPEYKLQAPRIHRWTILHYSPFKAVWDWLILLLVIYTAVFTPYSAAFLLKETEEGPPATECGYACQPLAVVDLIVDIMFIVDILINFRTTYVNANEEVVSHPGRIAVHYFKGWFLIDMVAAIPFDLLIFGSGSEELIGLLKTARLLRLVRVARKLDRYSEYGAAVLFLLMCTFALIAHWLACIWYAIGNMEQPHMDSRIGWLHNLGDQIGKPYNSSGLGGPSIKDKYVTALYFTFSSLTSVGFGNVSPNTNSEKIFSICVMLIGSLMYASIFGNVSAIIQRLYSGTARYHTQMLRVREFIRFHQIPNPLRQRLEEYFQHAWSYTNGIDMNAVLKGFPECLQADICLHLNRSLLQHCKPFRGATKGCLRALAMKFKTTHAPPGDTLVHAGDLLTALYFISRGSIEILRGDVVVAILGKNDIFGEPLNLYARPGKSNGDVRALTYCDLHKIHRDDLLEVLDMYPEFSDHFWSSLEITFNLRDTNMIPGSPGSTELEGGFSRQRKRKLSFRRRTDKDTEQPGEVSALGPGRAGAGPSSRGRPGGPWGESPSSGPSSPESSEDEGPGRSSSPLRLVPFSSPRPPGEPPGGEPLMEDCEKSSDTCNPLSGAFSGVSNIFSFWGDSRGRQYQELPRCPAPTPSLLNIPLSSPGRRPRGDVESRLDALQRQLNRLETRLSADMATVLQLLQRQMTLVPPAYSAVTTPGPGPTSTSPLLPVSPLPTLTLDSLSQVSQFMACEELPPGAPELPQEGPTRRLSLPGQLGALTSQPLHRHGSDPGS
row,Compound,"hERG current change (%, negative = inhibition) at 10uM"
1,CCN(C(C)=O)c1ccc(Oc2nc(OC)cc(OC)n2)cc1,-13.3%
2,Cc1cccc(N2C(=O)/C(=C\c3ccc(C(=O)O)cc3)c3ccccc3C2=O)c1,8.38%
3,CC(=O)N1CCCc2cc(S(=O)(=O)N(C)CCC#N)ccc21,-0.0813%
4,C=CCn1c(-c2ccccc2)cc(SC)c(C#N)c1=O,18.1%
5,CC(OC(=O)c1ccc2ncsc2c1)C(=O)Nc1ncc(Cl)cc1Cl (stereo not drawn),4.5%
6,C/C(=N\Nc1cc(N2CCCCC2)nc(C)n1)c1ccc(Br)cc1,-1.08%
7,CCC(C)(C)NC(=O)C(c1ccc(OC)cc1)N(C(=O)CCC(=O)Nc1cc(C)on1)c1ccccc1OC (stereo not drawn),-10%
8,CCCn1nc(NC(=O)c2cccs2)c2cc3cc(C)ccc3nc21,13.1%
9,CCCOC(=O)c1ccc(NC(=O)CSC2=Nc3ccccc3C3CC=NN23)cc1 (stereo not drawn),13.8%
10,COc1cc2ccccc2cc1C(=O)N(CCN(C)C)c1nc2ccc(C)cc2s1.Cl,-11.2%
11,CC(=O)Nc1ccc(NC(=O)COC(=O)c2ccccn2)cc1,31.5%
12,COc1ccc(S(=O)(=O)N2CCC(C(=O)N3CCCC3)CC2)cc1C,13.8%
13,COc1ccc(-c2coc3cc(O)c(OC)cc3c2=O)cc1,11.7%
14,Cn1c(SC2CCCCC2=O)nnc1-c1ccncc1 (stereo not drawn),-13.2%
15,CC(=O)Nc1ccc(CN2CCC(Oc3ccc(C(=O)N4CCCC4)cc3)CC2)cc1,-21.3%
16,O=C(NC1CCN(C(=O)c2cccc([N+](=O)[O-])c2)CC1)c1ccccc1,-32.8%
17,c1ccc(Cn2c(-c3ccco3)nc3nc4ccccc4nc32)cc1,6.13%
18,O=c1[nH]c(CSc2ncnc3sccc23)nc2cc(C(F)(F)F)ccc12,7.04%
19,CCC(=O)c1c(CC)c2n3c1CC[C@H]3CCC2,1.28%
20,Cc1[nH]c2ccccc2c1C(=O)COC(=O)C(C)C,-6.03%
21,COCCCNC(=O)[C@H](CSCc1ccccc1)N1Cc2ccccc2C1=O,-14.5%
22,CCN1CCCC1CN(Cc1cc2ccc(C)cc2[nH]c1=O)C(=S)Nc1ccc(F)cc1 (stereo not drawn),-78.5%
23,CCSc1nnc(-c2cc3c(s2)-c2ccccc2CC3)o1,9.83%

row,Compound,"hERG current change (%, negative = inhibition) at 10uM"
1,COc1ccc(CC2(CO)CCN(S(=O)(=O)c3cccc4cccnc34)CC2)cc1,-5.13%
2,CSC1=NSC2=NC(=O)/C(=C/c3coc4ccccc4c3=O)C(=N)N12,15.6%
3,O=C(Nc1nc(-c2ccccc2)cs1)c1cccc([N+](=O)[O-])c1,1.13%
4,CC(O)(C#CCN1CCCCCC1)c1ccccc1 (stereo not drawn),13.7%
5,CC(C)(C)c1nnc(NS(=O)(=O)c2ccc([N+](=O)[O-])cc2)s1,28.3%
6,O=C(C1=NN[C@@H]2C(=O)N(c3cccc(F)c3)C(=O)[C@H]12)c1ccc2ccccc2n1,5.23%
7,Cc1nnc(OCc2nc3ccccc3n2C)c2ccccc12,-27.4%
8,CCn1ncc(CNC(=O)CCCSc2nc(-c3ccco3)cc(C(F)(F)F)n2)c1C,-41.6%
9,CCN(CC)C(=S)SSC(=S)N(CC)CC,17.8%
10,Cc1ccc(C)c(NC(=S)NCC(c2cccnc2)N2CCOCC2)c1 (stereo not drawn),-8.03%
11,CC(=O)Nc1ccc(C2Nc3ccccc3C(=O)N2C2CCCCC2)cc1 (stereo not drawn),12.4%
12,COC(=O)c1sc2ccccc2c1NC(=O)c1ccc(S(=O)(=O)N2CC(C)CC(C)C2)cc1 (stereo not drawn),-6.83%
13,CSc1ccc(C(=O)C2CCCN(C(=O)CCCn3cncn3)C2)cc1 (stereo not drawn),-40.5%
14,CN(c1ccc(C(=O)N2CCOCC2)cc1)S(C)(=O)=O,-4.31%
15,CCOC(=O)CSc1nc2ccccc2c(=O)n1CC,-14.6%
16,CCOC(=O)c1ccc(N2C(=O)CC(N(C)Cc3ccccc3)C2=O)cc1 (stereo not drawn),20.9%
17,CC(=O)N(c1ccccc1)c1nc(C)cc(C)c1C#N,12.1%
18,CCN(CCNC(=O)C1CCN(S(=O)(=O)c2cccc3cccnc23)CC1)c1ccccc1,-41.7%
19,COc1cc2[nH]cc(C(=O)NCc3ccccc3)c(=O)c2cc1OC,12.8%
20,CC(C)(C)C(=O)OCc1nc(-c2ccc(O)c(O)c2)cs1,9.39%
21,CN1C(=O)C(C)(C)c2cc(S(=O)(=O)N3CCN(c4ccc(F)cc4)CC3)ccc21,-23.3%
22,COc1ccc(NC(=O)c2ccc(-n3cncn3)c([N+](=O)[O-])c2)cc1,-5.61%
